We go through 23 compounds from ChEMBL document CHEMBL4888484, “Replenishing the malaria drug discovery pipeline: Screening and hit evaluation of the MMV Hit Generation Library 1 (HGL1) against asexual blood stage Plasmodium falciparum ,using a nano luciferase reporter read-out” (2022).

In all, about 150,000 compounds went through this assay and about 540 (0.36%) showed an effect of 50% or more. The list shows a part of the results.

The test system of this assay is Plasmodium falciparum. Kind of assay: Primary screen in NF54 nanoGlo assay, in single point, at 2uM, 72h; a lower Z score goes with more inhibition. It counts as functional, Erythrocyte. As to conditions: timepoint 72 hour.
Turning to `CC1CCC(C(N)=O)CN1C(=O)c1cc(-c2ccccc2)cs1` (stereo unspecified), the % Inhibition (commonly the drop in the measured response relative to a control, in per cent) was -15% and the Z score is 1.79.
In the same order, the values of `CN(Cc1cccnc1)C(=O)[C@@]12CCCC=C1N(c1ccccc1)C(=O)CC2` are -10% and 1.02.
Taken in the same sequence, the figures for `COC(=O)C1CCN2C(=O)N(c3ccc(-c4csc(C)n4)cc3)C(=O)C2C1` (stereo unspecified) were -3% and 0.64.
On to `C[C@@H]1CN(Cc2ccc(CN(C)C(=O)c3cocn3)cc2)C[C@H](C)O1`, for which the “% Inhibition” value is recorded as 16% and the Z score is given as -1.92.
In the same order, the values of `CCC(CC)n1nc(C)cc1NC(=O)CN1CCOC1=O` are -12% and 1.1.
In the same order, the values of `CCCC[C@H](O)CCC(=O)N1CCN(C(C)(C)CO)CC1` are -6% and 0.85.
Taken in the same sequence, the figures for `CC(=Cc1ccc(C)cc1)C(=O)N1CC2(CC(=O)Nc3nccn32)C1` were -22% and 2.39.
Turning to `CC(C)NC(=O)CN(C[C@H](O)c1ccc(O)c(CO)c1)C(C)(C)C`, the “% Inhibition” value is reported as -14% and the Z score was 2.07.
With `Cc1cccc(CC(=O)NC2CCC(n3cccn3)CC2)c1` (stereo unspecified), the “% Inhibition” value is listed as -9% and the Z score came to 1.85.
On to `CN1CCC(n2ncc3[nH]c(-c4ccc(C(F)(F)F)cc4)nc32)CC1`, for which the “% Inhibition” value is 97% and the Z score is on record as -17.43.
In the same order, the values of `COc1ccc(C(=O)N[C@](C)(c2noc(C)n2)C2CC2)c(O)c1` are -13% and 2.33.
Consider `CC[C@H]1C(=O)NCCN1Cc1nnn(-c2ccccc2)c1C1CC1`, for which the “% Inhibition” value is -3% and the Z score was 0.66.
For `Cn1cc(C(=O)Nc2cccnc2C2CC2)ccc1=O`, the “% Inhibition” value was -7% and the Z score was found to be 1.17.
Taken in the same sequence, the figures for `CCCCN1C(=O)C2(CCOCC2)Nc2ccccc21` were 5% and -0.85.
In the same order, the values of `Cc1ccccc1C1CC1C(=O)NCC(=O)Nc1ccc(O)cc1` (stereo unspecified) are -15% and 1.32.
With `Cc1ccc(C(=O)Nc2ccnn2C[C@H]2CCOC2)o1`, the “% Inhibition” value is reported as -13% and the Z score is 1.48.
In the same order, the values of `COC(=O)c1nc(CCNC(=O)OC(C)(C)C)sc1C` are -16% and 3.2.
Consider `CC(C)(CO)N1CCN(c2ncc(-c3ccccc3)s2)CC1`, for which the “% Inhibition” value came to 8% and the Z score is recorded as -1.21.
In the same order, the values of `C=C(C)COc1cccc(NC(=O)CC)c1` are -9% and 1.62.
As for `Cc1cc(C(=O)N2CC(Oc3nc4ccccc4s3)C2)c(C)o1`, the “% Inhibition” value is -10% and the Z score is recorded as 1.67.
In the same order, the values of `CCCCn1c(N)c(N(CC)C(=O)c2cc(-c3ccc(OC)cc3)nc3ccccc23)c(=O)[nH]c1=O` are -2% and 0.22.
Taken in the same sequence, the figures for `O=C1NCCCC[C@@H]1NCc1cc2ccc(Cl)cc2nc1N1CCOCC1` were 9% and -1.36.
In the same order, the values of `CCCCS(=O)(=O)N1C[C@@H]2OC(=O)N(CCc3ccccn3)[C@@H]2C1` are -14% and 2.56.
